# Reference: PubChem BioAssay AID1476 (National Center for Advancing Translational Sciences (NCATS), 2009)
# Out of some 200,000 compounds screened, about 4,500 (2.2%) were called active. The inconclusive results got no clear call from the source; some entries with a clear call stand among them for comparison. Calls follow the shape of the dose curve; as a rule, active = well fitted inhibition curve with a large enough effect; inconclusive = small, poorly fitted or top-dose-only effect, or effect the other way; inactive = flat fitted curve, though single readings scatter. A potency beside an inconclusive call is a rough fit, not a confirmed value.
# Biological target: Cruzipain (Trypanosoma cruzi) (UniProt P25779)
# Chain of UniProt P25779 (P25779 whole entry, looked up): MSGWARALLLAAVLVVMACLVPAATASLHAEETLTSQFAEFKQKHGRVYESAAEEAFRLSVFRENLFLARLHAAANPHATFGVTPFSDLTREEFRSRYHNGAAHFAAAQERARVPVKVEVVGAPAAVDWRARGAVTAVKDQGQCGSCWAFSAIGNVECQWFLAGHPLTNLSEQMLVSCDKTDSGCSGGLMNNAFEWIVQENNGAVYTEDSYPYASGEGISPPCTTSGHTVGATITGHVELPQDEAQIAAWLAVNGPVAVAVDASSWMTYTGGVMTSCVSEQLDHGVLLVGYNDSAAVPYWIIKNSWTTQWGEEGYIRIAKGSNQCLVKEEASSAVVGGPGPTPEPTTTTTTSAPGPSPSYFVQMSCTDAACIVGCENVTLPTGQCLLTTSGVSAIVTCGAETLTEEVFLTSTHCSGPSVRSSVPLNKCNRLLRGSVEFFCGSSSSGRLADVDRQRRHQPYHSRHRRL
# Assay: qHTS Assay for Promiscuous and Specific Inhibitors of Cruzain (without detergent); also: nearly all actives have a fitted effect of over 40% in size;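 as to max response, negative = inhibition: plate controls were enzyme without inhibitor for no effect and buffer without enzyme for full effect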
# Details: purified cruzain, Z-FR-AMC fluorescence, no detergent
# Procedure, shortened: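 Detergent-free condition (0.00005% Triton X-100) in acetate buffer pH 5.5 with DTT. 1.5 nM enzyme and compound were pre-mixed 15 min, then 2 uM Z-FR-AMC substrate added; reaction progress from fluorescence change between first and third reads (60 s).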
# Potency is read from the fitted curve at half-maximal effect; tags tell the direction and shape of the fitted curve.
SMILES,"max response, negative = inhibition",Potency
O=S(=O)(NCc1ccccc1Cl)c1ccc(N2CCCCS2(=O)=O)cc1,inactive: -9.21%,–
Cc1cn(C)c(CC(=O)N2CCN(c3ccccc3F)CC2)c1C(=O)O,–,"inconclusive: 3.98 µM [activator, single point]"
Cc1ccc(-c2nn(-c3ccccc3)cc2/C=N/NS(=O)(=O)c2ccccc2)cc1,–,"inconclusive: 39.8 µM [inhibitor, single point]"
COc1ccc(OC)c(S(=O)(=O)N2CC=C(c3c(C)n(CC(=O)N4CCCC4)c4ccccc34)CC2)c1,–,"inconclusive: 25.1 µM [activator, single point]"
CN(C)c1ccc(CNC(=O)CCCn2ccc3cc(S(=O)(=O)N4CCCC4)ccc32)cc1,–,"inconclusive: 39.8 µM [activator, single point]"
COCCn1c(=O)c(-c2cccs2)nc2cnc(Oc3ccc(OC)cc3)nc21,–,"inconclusive: 39.8 µM [activator, single point]"
CC(=O)N1CCc2cc(Br)cc(S(=O)(=O)N3CCN(c4cccc(C)c4)C(C)C3)c21 (stereo not drawn),–,"inconclusive: 20 µM [activator, partial curve]"
CCOC(=O)Cc1nnc(NC(=O)COc2ccc(F)cc2)s1,–,"inconclusive: 12.6 µM [inhibitor, single point]"
COC(=O)c1cccc(NC(=O)Nc2cc(C(=O)NCc3cccc(F)c3)ccc2N2CCCC2)c1,–,"inconclusive: 31.6 µM [inhibitor, single point]"
N#C/C(=C\c1c(Oc2ccc(Br)cc2)nc2ccccn2c1=O)c1nc2ccccc2s1,inactive: -16.7%,–
COC(=O)c1sccc1NC(=O)c1cc(-c2cc(C)ccc2C)nc2ccccc12,–,"inconclusive: 39.8 µM [inhibitor, single point]"
Cn1c(SCC(=O)Nc2ccc3nc(SCC(=O)N4CCCC4)sc3c2)nnc1-c1ccccc1,–,"inconclusive: 39.8 µM [activator, single point]"
Cc1ccc(C2CC(=O)Oc3c(C(C)C)ccc(C)c32)cc1 (stereo not drawn),inactive: -2.27%,–
COc1ccc(OC)c(-c2cc(C(=O)N3CCc4ccccc4C3)no2)c1,–,"inconclusive: 39.8 µM [inhibitor, single point]"
N#Cc1ccccc1NC(=O)COc1c(Br)cc(Br)c2cccnc12,–,"inconclusive: 25.1 µM [inhibitor, single point]"
Cc1ccc(-c2cc(C(=O)N3CCN(c4ccccc4)CC3)c3ccccc3n2)cc1C,–,"inconclusive: 0.126 µM [activator, full curve]"
CC1CCN(S(=O)(=O)c2cc(C(=O)Nc3ccc(Br)cc3F)n(C)c2)CC1,inactive: -17.3%,–
CCCCCCC1CCC(C(=O)NC(CCSC)C(=O)NC(C(=O)OC)C(C)C)CC1 (stereo not drawn),–,"inconclusive: 31.6 µM [activator, partial curve]"
Cc1ccc(C)c(NC(=O)/C(C#N)=C/c2ccc(Sc3nncn3C)c([N+](=O)[O-])c2)c1,–,"inconclusive: 25.1 µM [activator, single point]"
CCCOc1ccccc1NC(=O)/C=C/C(N)=O,inactive: 3.96%,–
COc1cc(C2c3c(-c4cc(C)cc(C)c4O)n[nH]c3C(=O)N2CCCO)cc(OC)c1OC (stereo not drawn),–,"inconclusive: 31.6 µM [activator, single point]"

SMILES,"max response, negative = inhibition",Potency
CCN(CC)S(=O)(=O)c1ccc(N2CCOCC2)c(NC(=O)CCC2CCCCC2)c1,–,"inconclusive: 31.6 µM [activator, single point]"
CCOc1ccc(C(=O)CC(=O)C(=O)NCCc2ccc(OC)c(OC)c2)cc1,–,"inconclusive: 39.8 µM [activator, single point]"
COC(=O)C1C2c3ccccc3OC1(C)N=c1s/c(=C/c3cnn(C)c3C)c(=O)n12 (stereo not drawn),–,"inconclusive: 31.6 µM [activator, single point]"
CCCn1c(=NC(C)=O)c(C(=O)OCC)cc2c(=O)n3ccccc3nc21,–,"inconclusive: 20 µM [activator, partial curve]"
CCOC(=O)c1nnn(CC(=O)N2N=C(c3ccccc3)CC2c2ccccc2)c1C(=O)OCC (stereo not drawn),–,"inconclusive: 39.8 µM [activator, single point]"
CCOC(=O)N1CCC(NC(=O)c2ccc3c(Cl)c4c(nc3c2)CCCC4)CC1,–,"inconclusive: 39.8 µM [activator, single point]"
Cc1ccc(CN(Cc2ccco2)C(=O)c2oc3ccc(C)cc3c2C)cc1,–,"inconclusive: 31.6 µM [inhibitor, single point]"
CCOc1ccc(C(=O)c2cn(Cc3ccc(F)cc3)c3ccc(F)cc3c2=O)cc1,inactive: 3.78%,–
Cc1cc2n(n1)C(c1cn(-c3ccccc3)nc1C)Nc1ccccc1-2 (stereo not drawn),–,"inconclusive: 25.1 µM [inhibitor, single point]"
Cc1ccccc1NC(=O)COC(=O)/C=C/c1cn(-c2ccccc2)nc1-c1cccnc1,–,active: 25.1 µM
COc1ccc(S(=O)(=O)n2nc(OC(=O)c3ccccc3Br)cc2N)cc1,–,"inconclusive: 39.8 µM [inhibitor, single point]"
CCOC(=O)c1c(NC(=S)Nc2ccccc2)sc2c1CCCCC2,inactive: -14.9%,–
Cc1cc(C)c(NC(=O)COC(=O)/C=C/c2cccc(C(F)(F)F)c2)c(C)c1,inactive: 0.405%,–
C(=N\Nc1nc2ccccc2[nH]1)/c1cccs1,–,"inconclusive: 39.8 µM [inhibitor, single point]"
Cc1ccc(NC(=O)Cn2nnc(C(=O)NCCc3ccccc3)c2N)cc1C,–,"inconclusive: 39.8 µM [inhibitor, single point]"
CCOC(=O)c1cc2c(=O)n3cccc(C)c3nc2n(C)c1=N,–,"inconclusive: 31.6 µM [inhibitor, single point]"
Cc1cc(NS(=O)(=O)c2ccc(C3CCCCC3)cc2)no1,–,"inconclusive: 25.1 µM [inhibitor, single point]"
Cc1ccc(CNC(=O)C(=O)NCC(c2cccnc2)N2CCN(c3ccccc3F)CC2)cc1 (stereo not drawn),–,"inconclusive: 20 µM [activator, single point]"
COc1cccc2sc(N3CCN(C(=O)CCS(=O)(=O)c4ccc(F)cc4)CC3)nc12,inactive: 20%,–
CC(C)[C@H](NC(=O)c1ccc(Cl)c([N+](=O)[O-])c1)C(=O)NCc1ccc(Cl)cc1Cl,–,"inconclusive: 39.8 µM [inhibitor, single point]"
CCCCSc1nc(O)c(C2OC(=O)c3c2ccc(OC)c3OC)c(=O)n1-c1ccccc1 (stereo not drawn),–,"inconclusive: 39.8 µM [activator, single point]"

SMILES,"max response, negative = inhibition",Potency
NC(=O)c1oc2ccccc2c1NC(=O)c1nc2ccccc2s1,–,"inconclusive: 25.1 µM [inhibitor, single point]"
O=C(Nc1ccc(F)c(F)c1)C1CCCN1S(=O)(=O)c1cccc2nsnc12 (stereo not drawn),inactive: -2.33%,–
CC(C)c1nnc(NC(=O)Cc2ccc(Br)cc2)s1,–,"inconclusive: 31.6 µM [inhibitor, single point]"
COc1ccc(N(CC(=O)Nc2ccccc2C(=O)NCCc2ccccc2)S(C)(=O)=O)cc1OC,–,"inconclusive: 25.1 µM [activator, single point]"
CCc1ccc(CNC(=O)CCn2c(=O)c3cccn3c3ccc(F)cc32)cc1,–,"inconclusive: 39.8 µM [activator, single point]"
Cc1cc(C)cc(OCC(=O)OCC(=O)c2ccc3c(c2)NC(=O)CO3)c1,–,"inconclusive: 39.8 µM [inhibitor, single point]"
Cc1nc(COC(=O)c2ccc(CO)cc2)cs1,inactive: 1.95%,–
Cc1ccc(-n2nnc(-c3nsc(NC(=O)c4ccc(C)c(C)c4)n3)c2C)cc1,–,"inconclusive: 39.8 µM [inhibitor, single point]"
COc1ccc(/C=N/NC(=O)c2ccc(COCC(F)(F)C(F)F)cc2)cc1,–,"inconclusive: 25.1 µM [inhibitor, single point]"
O=C(Nc1cc(Sc2nc3ccccc3s2)cc([N+](=O)[O-])c1)c1ccccc1,–,"inconclusive: 39.8 µM [inhibitor, single point]"
Cc1c(C(=O)NCc2ccc3c(c2)OCO3)oc2ccc(S(=O)(=O)N3CCCC3)cc12,–,active: 15.8 µM
CC(=NC1CCCCC1)C1=C(O)c2ccccc2C1=O,inactive: -21.6%,–
COc1cc(C(=O)Nc2ccc(-c3nnc(-c4ccco4)o3)cc2)cc(OC)c1OC,–,"inconclusive: 39.8 µM [activator, single point]"
COc1ccc(S(=O)(=O)N(CC(=O)Nc2cccnc2)c2ccc(C)cc2)cc1OC,inactive: 1.72%,–
CCc1ccc(-n2c(CCC(=O)O)ccc2-c2ccc(F)cc2)cc1,inactive: 17.1%,–
COc1ccc2nc(SCC(=O)Nc3ccccc3)[nH]c2c1,inactive: -17.8%,–
N/C(=N\c1nc(CSc2ccc(Cl)cc2)cc(=O)[nH]1)Nc1cccc2ccccc12,–,active: 10 µM
CC(C)(C)c1ccc(C(=O)NCCn2c(N)c(C#N)c3nc4ccccc4nc32)cc1,–,"inconclusive: 39.8 µM [activator, single point]"
COc1ccc(Nc2nc(N)nc(CSC(=S)N3CCN(c4ccccc4)CC3)n2)cc1,–,"inconclusive: 39.8 µM [inhibitor, single point]"
CCOc1ccc(C(C(=O)NC2CCCCC2)N(C(=O)c2ccco2)c2ccc(-n3cnnn3)c(C)c2)cc1 (stereo not drawn),–,"inconclusive: 12.6 µM [activator, partial curve]"
COc1ccccc1N(O)C1CC(=O)N(c2ccc(Br)cc2)C1=O (stereo not drawn),–,"inconclusive: 39.8 µM [inhibitor, single point]"
